# According to PubChem BioAssay AID1508642 (National Center for Advancing Translational Sciences (NCATS), 2021):
# Hit rate of the full screen: of about 43,000 compounds, about 200 (0.47%) were called active. About 12% were inconclusive and are not listed. The call rests on the fitted dose curve; in most records, active means well fitted cell-killing curve with a large enough effect; inconclusive means small, poorly fitted or top-dose-only effect, or effect the other way; inactive means flat fitted curve, though single readings scatter. The list shows a part of the results.
# Assay: Cell viability qHTS assay in S16 Pmp22-F2sN cells; further: nearly all actives have a fitted effect of over 65% in size
# Conditions: S16 Pmp22-F2sN Schwann cells (luciferase reporters placed in the Pmp22 gene) viability, CellTiter-Glo, 24 h; series mostly up to 57.5 µM; activity change, negative = cytotoxicity: at the top concentration
# How it was run: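 CellTiter-Glo counter-screen, qHTS, 1536-well. Cells: S16(c9) Pmp22-F2sN, 500-1,000/well in DMEM + 10% FBS. Cpd 23 nL pin transfer, 24 h, 37C/5% CO2. Read: luminescence, CCD imager.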
# On the % scale 0 is the no-effect control and ±100 the full control effect; potency means the concentration at half of the fitted maximal effect.
Structure (SMILES),"activity change, negative = cytotoxicity",Potency
CN(Cc1ccccc1)C(=O)Cn1c(=O)c2cccn2c2ccc(F)cc21,inactive: 18.3%,
CCOC(=O)CNC(=O)CC(c1cc(OC)c(OC)c(OC)c1)N1Cc2ccccc2C1=O (stereo unspecified),inactive: 12.6%,
CCOC(=O)c1ccc(NC(=O)CCn2c(=O)oc3ccccc32)cc1,inactive: 26.4%,
CCN(CC)c1ccc(C(=O)Nc2ccc3nc(N(CC)CC)cc(C)c3c2)cc1,inactive: -1.56%,
O=S(=O)(NCC(c1ccco1)N1CCOCC1)c1ccc(Cl)cc1 (stereo unspecified),inactive: 0.131%,
Cc1ccccc1NC(=O)C1CCN(S(=O)(=O)c2ccccc2)CC1,inactive: -5.61%,
CCc1ccc(NC(=O)C2CCCN(S(=O)(=O)c3cccc4cccnc34)C2)cc1 (stereo unspecified),inactive: -24.5%,
COC(=O)c1ccc(CNC(=O)c2nc(Cn3nc(C)c(Br)c3C)no2)cc1,inactive: -4.79%,
COc1cc2c(cc1OC)C(COc1cc(C)cc(C)c1)N(C(=O)c1ccc(S(=O)(=O)N3CCCC3)cc1)CC2 (stereo unspecified),inactive: 2.26%,
O=C(CSc1nc2c([nH]c3ccccc32)c(=O)n1-c1cccc(Cl)c1)NCc1ccccc1,inactive: -7.57%,
O=C(CCCCCn1c(=O)[nH]c2ccccc2c1=O)N1CCN(c2ccc(Cl)cc2)CC1,inactive: 7.8%,
Cc1ccc(C)c(-c2ccc(=O)n(Cc3ccc(F)cc3Cl)n2)c1,inactive: -5.92%,
CCOC(=O)C1CCCN(C(=O)Cn2ncc3c4ccccc4n(Cc4ccc(F)cc4)c3c2=O)C1 (stereo unspecified),inactive: -16%,
O=C(COc1ccccc1)Nc1sc2c(c1C(=O)Nc1ccccc1)CCCCC2,inactive: 8.9%,
CCc1nnc(NC(=O)CSc2nc3c([nH]c4ccccc43)c(=O)n2-c2ccc(C)cc2)s1,inactive: -0.619%,
CCc1nc2ccc(C(=O)N3CCN(c4cccc(OC)c4)CC3)cc2nc1CC,inactive: -3.22%,
COc1cc(C(=O)NCc2nnnn2-c2ccc(C)c(C)c2)cc(OC)c1OC,inactive: -1.09%,
COc1ccc(OCCn2cc(C(=O)c3ccco3)c3ccccc32)cc1,inactive: -5.73%,
CCC(=O)N1CCc2cc(S(=O)(=O)NC(Cc3ccccc3)C(=O)NCc3ccc(C)cc3)ccc21 (stereo unspecified),inactive: 7.41%,
CCOc1ccccc1CN1C(=O)c2ccccc2C1C(=O)NC1CCCCCC1 (stereo unspecified),inactive: -4.95%,
COC(=O)c1cc2occc2n1Cc1nc(-c2ccccc2C)oc1C,inactive: 5.01%,

Structure (SMILES),"activity change, negative = cytotoxicity",Potency
CC(=O)Nc1ccc(NC(=O)CSc2cn(CC(=O)N(C(C)C)C(C)C)c3ccccc23)cc1,inactive: 3.02%,
Cc1ccc(-c2noc(CN(C3CCCCC3)S(=O)(=O)c3ccc(F)cc3)n2)cc1,inactive: -19.2%,
Cc1cc2oc(C(=O)NCCc3ccc(S(N)(=O)=O)cc3)cc(=O)c2cc1C,inactive: -3.39%,
O=c1c(-c2cc(-c3ccc(F)cc3)nc3c2COc2ccc(Cl)cc2-3)coc2ccc(F)cc12,inactive: 2.64%,
CC(=O)N1c2ccc(S(=O)(=O)N3CCN(c4cc(Cl)ccc4C)CC3)cc2CC1C (stereo unspecified),inactive: -1.51%,
COc1ccc(-c2nc(C)c(CCNC(=O)c3ccco3)s2)cc1,inactive: 6.15%,
CC(C)c1ccc(NC(=O)CSC2=Nc3ccccc3C3=NC(CCC(=O)NCc4ccc(F)cc4)C(=O)N23)cc1 (stereo unspecified),,active: 28.2 µM
CCC(C)Sc1nc2c([nH]c3ccccc32)c(=O)n1C (stereo unspecified),inactive: 9.45%,
Cc1ccccc1COC(=O)c1ccc(-c2nnn(Cc3ccccc3F)n2)cc1,inactive: -3.52%,
CCN1CCN(C(=O)c2ccc3c(c2)N(Cc2c(F)cccc2Cl)C(=O)c2ccccc2S3)CC1,inactive: -19.5%,
Cc1ccc(-c2cc(C(=O)N3CCN(S(=O)(=O)c4ccc(Br)s4)CC3)[nH]n2)cc1C,inactive: -3.02%,
Cc1ccc(S(=O)(=O)n2nc(-c3ccccc3)nc2NCc2ccccc2Cl)cc1,inactive: -12.2%,
CCc1ccc(NC(=O)Cn2c(=O)n(Cc3ccc4c(c3)OCO4)c(=O)c3oc4ccccc4c32)cc1,inactive: 25.1%,
COc1ccc(CNc2nc(-c3ccco3)nn2S(=O)(=O)c2ccc3ccccc3c2)cc1OC,inactive: 9.54%,
Cc1cc(C)n2nc(NCc3ccccc3Cl)nc2n1,inactive: 8.69%,
Cc1ccc(C)c(NC(=O)Cn2c(=O)n(Cc3nc(C)no3)c(=O)c3cc4c(cc32)OCO4)c1,inactive: -2.57%,
Cc1cc(-c2ccc(S(=O)(=O)NCc3ccccc3Cl)s2)on1,inactive: -24.9%,
Cc1ccc(-c2cc(-c3coc4ccccc4c3=O)c3c(n2)-c2ccccc2OC3)cc1,inactive: 23.2%,
Cc1ccc(S(=O)(=O)N2CCc3cc(C(=O)NCCc4ccccc4)ccc32)cc1,inactive: -18.7%,
COc1cccc(Cn2c(=O)cc(C)c3c(C)nn(-c4ccc(C)cc4)c32)c1,inactive: -11.2%,
CCOc1ccc(CNC(=O)C2CCN(S(=O)(=O)c3ccc4c(ccn4C)c3)CC2)cc1,inactive: -2.85%,

Structure (SMILES),"activity change, negative = cytotoxicity",Potency
Cc1nn(CC(=O)NCC(C)c2ccccc2)c(=O)c2cc3ccccc3n12 (stereo unspecified),inactive: 9%,
COc1cccc(CNC(=O)CCn2c(=O)c3cccn3c3cccnc32)c1OC,inactive: 15.6%,
Cc1c(C(=O)Nc2ccc(-c3nc4cc(Cl)ccc4o3)cc2)oc2ccccc12,inactive: 1.11%,
Cc1ccccc1NC(=O)CSc1cn(CC(=O)N2CCCC2)c2ccccc12,inactive: -4.6%,
COc1ccc(N(C)C(=O)c2nc(-c3cccc(F)c3)n3c2CCCCC3)c(OC)c1,inactive: 3.45%,
Cc1ccc(-c2noc(-c3ccc(N4CCCCC4C)c([N+](=O)[O-])c3)n2)cc1 (stereo unspecified),inactive: 15.9%,
CCCCn1c(=O)c2oc3ccccc3c2n(Cc2cccc(C)c2)c1=O,inactive: 3.25%,
O=C(Nc1nnc(S(=O)(=O)N2CCCCCC2)s1)c1cccc(Br)c1,inactive: -8.71%,
COc1ccc(NC(=O)C2CCC(CNS(=O)(=O)c3ccc4c(c3)C(C)(C)C(=O)N4C)CC2)cc1 (stereo unspecified),inactive: 5.88%,
CCOc1ccc(Nc2ncnc3c2nc2n3CCCCC2)cc1,inactive: 17.2%,
Cc1cccc(N2CCN(C(=O)Cn3ncc4c3-c3ccccc3OC4)CC2)c1C,inactive: 0.596%,
CC(=O)c1ccc(NC(=O)c2nc(-c3ccccc3)n(-c3ccccc3Cl)n2)cc1,inactive: -0.241%,
COc1ccc(CNCCCSc2nnnn2C)c(OC)c1,inactive: 5.73%,
CCc1nnc(SCc2ccc(F)cc2Cl)c2cc3sc(C)cc3n12,inactive: 3.31%,
O=C(COc1ccccc1)Nc1ccc2nc(SCC(=O)N3CCc4ccccc43)sc2c1,inactive: -11.5%,
CCOc1ccc(C(=O)Nc2onc3c2CCCC3)cc1,inactive: -1.7%,
N#Cc1ccccc1Cn1c(SCC(=O)Nc2ccc(F)cc2)nc2ccccc21,inactive: 0.724%,
Cn1cnc(S(=O)(=O)N2CCC(C(=O)Nc3ccc(C#N)cc3)CC2)c1,inactive: 2.25%,
CCOc1cc(C(=O)Nc2ccc(-c3nc4cc(Cl)ccc4o3)cc2)cc(OCC)c1OCC,inactive: 3.04%,
